{
  "source": "PubChem BioAssay AID894",
  "about": "(National Center for Advancing Translational Sciences (NCATS), 2007)",
  "note": "Several values for one entry are separate records, joined by “and”; a condition that tells them apart may be missing. Equal values may be shown once. Screen size: about 150,000 compounds; about 6,500 (4.3%) were called active. This list was built around the results that the source calls inconclusive (neither active nor inactive); the mix of calls is not that of the screen. The call rests on the fitted dose curve; in most records, active means well fitted inhibition curve with a large enough effect (not every such curve was filed as active); inconclusive means small, poorly fitted or top-dose-only effect, or another doubt; inactive means no such curve, though single readings can be large or run the other way. Potencies of inconclusive entries are left out as doubtful fits. On the % scale 0 is the no-effect control and ±100 the full control effect; potency means the concentration at half of the fitted maximal effect; tags describe the fitted curve by direction and shape.",
  "data": [
    {"molecular_target": "15-hydroxyprostaglandin dehydrogenase [NAD(+)] (Homo sapiens) (UniProt P15428)", "sequence (P15428 whole entry, looked up)": "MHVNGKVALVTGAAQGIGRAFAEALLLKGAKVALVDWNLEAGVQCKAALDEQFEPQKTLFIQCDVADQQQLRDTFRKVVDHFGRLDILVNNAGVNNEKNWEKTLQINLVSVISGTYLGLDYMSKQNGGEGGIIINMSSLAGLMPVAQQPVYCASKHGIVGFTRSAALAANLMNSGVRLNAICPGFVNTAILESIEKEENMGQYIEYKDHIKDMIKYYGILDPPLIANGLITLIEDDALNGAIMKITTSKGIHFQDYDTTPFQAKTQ", "assay": "qHTS Assay for Inhibitors of HPGD (15-Hydroxyprostaglandin Dehydrogenase)", "conditions": "purified HPGD, NADH fluorescence kinetic, PGE2 substrate; activity change, negative = inhibition: stronger effect = lower value", "procedure,_shortened": "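20 nM HPGD preincubated 15 min at room temperature with compound in 50 mM Tris-HCl pH 8, 0.01% Tween 20. Started with 1 mM NAD+ and 30 uM prostaglandin E2; NADH fluorescence (360/450 nm) read 5 times over 30-s intervals, last minus first.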", "values": [
      {"smiles": "COc1ccccc1NC(=O)N1CCn2c(nc3ccccc32)C1", "activity change, negative = inhibition": "inactive: -2.43%"},
      {"smiles": "CC1CCCC(C)N1C(=O)COC(=O)C(Cc1ccccc1)NC(=O)c1cccs1", "note": "(stereo not given)", "activity change, negative = inhibition": "inactive: -16.4%"},
      {"smiles": "O=C(NCCc1c[nH]c2ccccc12)c1cc(S(=O)(=O)N2CCCCC2)ccc1N1CCOCC1", "Potency": "inconclusive [inhibitor, single point]"},
      {"smiles": "COc1cccc(-c2csc(N3CCN(C(=S)Nc4ccccc4Cl)CC3)n2)c1", "activity change, negative = inhibition": "inactive: -16.6%"},
      {"smiles": "Fc1ccc(CSc2nc3ncc(Br)cc3[nH]2)cc1", "Potency": "active: 0.631 µM"},
      {"smiles": "O=C(O)c1ccccc1C(=O)Nc1ccc(S(=O)(=O)Nc2nccs2)cc1", "activity change, negative = inhibition": "inactive: -0.812% and inactive: -13%"},
      {"smiles": "CCOC(=O)c1c(NC(=O)C(C)NCc2ccco2)sc2c1CCC(C)C2", "note": "(stereo not given)", "Potency": "inconclusive [inhibitor, single point]"},
      {"smiles": "C=C(Cl)COc1ccc2c(C)cc(=O)oc2c1", "Potency": "inconclusive [inhibitor, partial curve]"},
      {"smiles": "CCCCCC(=O)Nc1nc(C)c(-c2csc(Nc3ccccc3OCC)n2)s1", "activity change, negative = inhibition": "inactive: -21.5%"},
      {"smiles": "CC(=O)c1c(C)oc2ccc(NS(=O)(=O)c3ccc(O)c(C(=O)O)c3)cc12", "Potency": "inconclusive [inhibitor, single point]"},
      {"smiles": "C=C(N(C)C)[C@]1(C)C[C@H]1[C@H](NC(=O)CNC(=O)OCc1ccccc1)c1ccccc1", "activity change, negative = inhibition": "inactive: -1.51%"},
      {"smiles": "O=[N+]([O-])c1ccc(Cl)c(/C=N/n2c(-c3cccnc3)n[nH]c2=S)c1", "Potency": "active: 8.91 µM"},
      {"smiles": "S=c1[nH]nc(-c2ccccc2)n1/N=C/c1cccs1", "Potency": "active: 17.8 µM"},
      {"smiles": "CCCCNc1cc(C)nc(NCc2ccccc2)n1", "activity change, negative = inhibition": "inactive: -6.12%"},
      {"smiles": "Cc1cc(=O)oc2c(CN(C)Cc3ccccc3)c(O)ccc12", "Potency": "inconclusive [inhibitor, full curve]"},
      {"smiles": "Cc1ccc(-c2nc(N)sc2CC(=O)OCC(=O)NCC2CCCO2)cc1", "note": "(stereo not given)", "Potency": "active: 31.6 µM"},
      {"smiles": "CCN(Cc1ccccc1)c1ccc(/C=N/N=C(N)N)cc1", "Potency": "inconclusive [inhibitor, partial curve, poor fit]"},
      {"smiles": "CC(C)NC(=O)c1cc2c(s1)CCCC2", "Potency": "active: 22.4 µM"},
      {"smiles": "O=C(Nc1ccc(O)cc1)c1ccc(C(=O)c2ccccc2)o1", "Potency": "inconclusive [inhibitor, single point]"},
      {"smiles": "CCNc1ncc2ncc(=O)n(C)c2n1", "Potency": "inconclusive [inhibitor, partial curve]"},
      {"smiles": "NC(=S)Nc1ccc(Oc2ccc(NC(N)=S)cc2)cc1", "Potency": "active: 22.4 µM"},
      {"smiles": "COC(=O)c1c(CSc2ccc(Cl)cc2)noc1C(=O)NCc1ccco1", "Potency": "active: 22.4 µM"},
      {"smiles": "COc1ccc(-c2cc(=O)oc3cc(OCc4nn[nH]n4)ccc23)cc1", "Potency": "inconclusive [inhibitor, partial curve]"},
      {"smiles": "CCc1nnc(NC(=O)c2sc3nc4c(cc3c2N)CCCCC4)s1", "Potency": "inconclusive [inhibitor, partial curve]"},
      {"smiles": "Cc1cc(C[n+]2ccccc2)c2nsnc2c1", "Potency": "inconclusive [inhibitor, single point]"},
      {"smiles": "CCN(CC)S(=O)(=O)c1ccc(NC(=O)COC(=O)CCc2cc(OC)c(OC)c(OC)c2)cc1", "activity change, negative = inhibition": "inactive: -4.52%"},
      {"smiles": "N#C/C(=C\\c1cn(CC(=O)N2CCCC2)c2ccccc12)C(=O)NCc1ccc2c(c1)OCO2", "Potency": "inconclusive [inhibitor, partial curve]"},
      {"smiles": "COc1ccccc1OCC(=O)NC1CCCCCC1", "Potency": "active: 10 µM"},
      {"smiles": "CC1CCN(C(=O)COc2ccccc2F)CC1", "Potency": "active: 25.1 µM"},
      {"smiles": "CN(C)C(=O)/N=N/C(=O)N(C)C", "activity change, negative = inhibition": "inactive: -1.95%"},
      {"smiles": "Cc1c(NC(=O)Nc2ccccc2Cl)sc(=S)n1C", "Potency": "inconclusive [inhibitor, partial curve]"},
      {"smiles": "COC(=O)CNC(=O)C1(CC(C)C)C=CCN1C(=O)c1ccccc1", "note": "(stereo not given)", "activity change, negative = inhibition": "inactive: -1.41%"},
      {"smiles": "CCOC(=O)c1sc2cccc(F)c2c1N", "Potency": "inconclusive [inhibitor, partial curve]"},
      {"smiles": "CCOC(=O)N1CCN(C(=O)c2ccc3c(c2)N(Cc2ccc(C)cc2)CCS3)CC1", "Potency": "inconclusive [inhibitor, partial curve]"},
      {"smiles": "O=C(Cn1nnc(-c2ccccc2Cl)n1)N/N=C/c1ccc2c(c1)OCO2", "Potency": "inconclusive [inhibitor, partial curve]"},
      {"smiles": "O=C(N/N=C/c1ccccc1O)c1cc(=O)[nH]c2ccccc12", "Potency": "inconclusive [inhibitor, partial curve]"},
      {"smiles": "C=CCSc1nnc(NC(=O)c2cccc(S(=O)(=O)N(C)c3ccccc3)c2)s1", "Potency": "inconclusive [inhibitor, partial curve]"},
      {"smiles": "COc1cc(/C=N/NC(=O)CCc2ccccc2)ccc1O", "Potency": "inconclusive [inhibitor, partial curve]"},
      {"smiles": "O=c1c(Cl)c(N/N=C/c2ccc(Br)cc2)cnn1-c1ccccc1", "Potency": "inconclusive [inhibitor, partial curve]"},
      {"smiles": "COc1cccc(C(=O)CC2c3c(c(Br)c4c(c3OC)OCO4)CCN2C)c1", "note": "(stereo not given)", "Potency": "inconclusive [inhibitor, single point]"},
      {"smiles": "O=C(CCc1ccccc1)NNC(=O)c1ccco1", "Potency": "active: 28.2 µM"},
      {"smiles": "CCOC(=O)c1c(NC(=O)c2cc3n(n2)C(C(F)(F)F)CC(c2ccccc2)N3)sc(C)c1C", "note": "(stereo not given)", "Potency": "inconclusive [inhibitor, partial curve]"},
      {"smiles": "CC(OC(=O)CNC(=O)c1ccc2c(c1)OCO2)C(=O)NCCC1=CCCCC1", "note": "(stereo not given)", "Potency": "active: 17.8 µM"},
      {"smiles": "COc1ccc2c(c1OC)C(=O)N1N=C(c3ccc(Br)cc3)CC21", "note": "(stereo not given)", "activity change, negative = inhibition": "inactive: -21.6%"},
      {"smiles": "O=C(Cc1ccccc1)NCC(=O)OCC(=O)c1ccc(OC(=O)c2ccccc2)cc1", "activity change, negative = inhibition": "inactive: -3.07%"},
      {"smiles": "Nc1cc(Cl)ccc1Oc1ccc(Cl)cc1", "Potency": "active: 22.4 µM"},
      {"smiles": "O=C(COC(=O)c1cccnc1Nc1cccc(C(F)(F)F)c1)NC1CCS(=O)(=O)C1", "note": "(stereo not given)", "activity change, negative = inhibition": "inactive: -8.58%"},
      {"smiles": "O=C(O)c1oc(C(=O)O)c(C(=O)O)c1C(=O)O", "activity change, negative = inhibition": "inactive: -4.26%"},
      {"smiles": "O=C(CSc1ccc(-c2cccs2)nn1)N1CCCCCC1", "Potency": "active: 11.2 µM"},
      {"smiles": "CCOC(=O)N1CCN(c2c(NCc3ccccc3OC)c(=O)c2=O)CC1", "Potency": "active: 15.8 µM"},
      {"smiles": "O=C(Nc1ccccc1F)c1ccc(COc2ccc(Cl)cc2Cl)o1", "activity change, negative = inhibition": "inactive: -15.5%"},
      {"smiles": "Cc1ccc(N=C2NC(=O)/C(=C\\c3ccco3)S2)cc1", "Potency": "inconclusive [inhibitor, partial curve]"},
      {"smiles": "CCC[C@@H]1C[C@@]1(CCC)[C@@H](NP(=O)(c1ccccc1)c1ccccc1)c1ccc(C(=O)OC)cc1", "activity change, negative = inhibition": "inactive: -19% and inactive: -14.9%"},
      {"smiles": "Cc1ccc(/C=N/N2CCN(Cc3ccc(Cl)cc3)CC2)o1", "activity change, negative = inhibition": "inactive: -34.9%"},
      {"smiles": "CCn1ncc(Br)c1C(=O)Nc1nccs1", "Potency": "active: 25.1 µM"},
      {"smiles": "COC(=O)c1ccc(Sc2ccc(F)cc2)c(N)c1", "Potency": "inconclusive [inhibitor, partial curve]"},
      {"smiles": "Cc1nn(-c2ccccc2)c(Cl)c1C(=O)NCc1cccs1", "Potency": "active: 10 µM"},
      {"smiles": "Cc1oc(-c2ccccc2F)nc1CS(=O)CC(=O)NCc1ccc2c(c1)OCO2", "note": "(stereo not given)", "Potency": "inconclusive [inhibitor, partial curve]"},
      {"smiles": "CC1CCN(C(=O)CCCOc2cc(=O)n(C)c3ccccc23)CC1", "Potency": "active: 7.94 µM"},
      {"smiles": "CCOC(=O)c1[nH]c2ccc(F)cc2c1NC(=O)CCN1CCOCC1", "Potency": "inconclusive [inhibitor, single point]"},
      {"smiles": "O=c1[nH]c2cc3c(cc2cc1C(c1nnnn1CC1CCCO1)N1CCCC1)OCO3", "note": "(stereo not given)", "Potency": "inconclusive [inhibitor, partial curve]"},
      {"smiles": "C/C=C/c1ccc(OCCOc2ccc(C=O)cc2)c(OC)c1", "Potency": "active: 25.1 µM"},
      {"smiles": "Cc1cc([N+](=O)[O-])ccc1NC(=O)/C=C/c1cccs1", "activity change, negative = inhibition": "inactive: -10.1%"},
      {"smiles": "COC(=O)c1[nH]c2cccc(C)c2c1NC(=O)CN1CCN(C(=O)c2ccco2)CC1", "Potency": "inconclusive [inhibitor, partial curve]"},
      {"smiles": "O=C1CC(c2ccccc2)NC(=O)N1", "note": "(stereo not given)", "activity change, negative = inhibition": "inactive: -2.68%"},
      {"smiles": "CC(O)c1c(OCc2ccccc2)ncnc1OCc1ccccc1", "note": "(stereo not given)", "Potency": "inconclusive [inhibitor, partial curve]"},
      {"smiles": "COc1ccccc1NC(=S)N/N=C/c1ccc(O)cc1", "activity change, negative = inhibition": "inactive: -20.8%"},
      {"smiles": "CC(=O)N1CCC2(CCCN(c3ccccn3)C2)CC1", "Potency": "inconclusive [inhibitor, partial curve]"},
      {"smiles": "NC(=O)[C@@H]1CCCNc2c(I)cc([N+](=O)[O-])cc2C(=O)N[C@@H](CO)C(=O)N[C@@H](Cc2ccc(O)cc2)C(=O)N1", "activity change, negative = inhibition": "inactive: -6.19%"},
      {"smiles": "Cc1ccc(-c2nnn(CC(=O)N(CC(=O)NCc3ccccc3)c3cccc(C)c3C)n2)o1", "Potency": "active: 25.1 µM"},
      {"smiles": "CC(C)(C)c1ccc(NC(=O)COC(=O)CCc2nc3ccccc3c(=O)[nH]2)cc1", "Potency": "inconclusive [inhibitor, single point]"},
      {"smiles": "Cc1cc2nc(CCN(C(=S)NCC(C)C)C3CCCC3)[nH]c2cc1C", "activity change, negative = inhibition": "inactive: -5.29%"},
      {"smiles": "CCn1c2ccccc2c2cc(NC(=O)c3cccc(OC)c3)ccc21", "Potency": "inconclusive [inhibitor, single point]"},
      {"smiles": "O=C(CCc1ccc(S(=O)(=O)N2CCOCC2)cc1)N/N=C/c1ccc(O)c(O)c1O", "Potency": "inconclusive [inhibitor, single point]"},
      {"smiles": "CCN1CCCC1CNC(=O)CS(=O)(=O)Cc1nc(-c2ccccc2C)oc1C", "note": "(stereo not given)", "activity change, negative = inhibition": "inactive: -13%"}
    ]}
  ]
}
